# Hit rate of the full screen: of about 350,000 compounds, about 31,000 (8.9%) were called active. Inconclusive means that the source gave no clear call. Such entries were picked first, then a sample of the others. Calls follow the shape of the dose curve; as a rule, active = well fitted inhibition curve with a large enough effect; inconclusive = small, poorly fitted or top-dose-only effect; inactive = no such curve, though single readings can be large or run the other way. Potencies of inconclusive entries are doubtful fits and often do not repeat.
# Molecular target: Histone-lysine N-methyltransferase EHMT2 (Homo sapiens) (UniProt Q96KQ7)
# Assay: qHTS Assay for Inhibitors of Histone Lysine Methyltransferase G9a; also: nearly all actives have a fitted effect of over 75% in size
# Conditions: G9a H3K9 monomethylation, AlphaScreen, 2 h; activity, negative = inhibition: at 59 µM (top of the series) unless noted
# Summary of the method: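 Readings reflect AlphaScreen signal from monomethyl-H3K9 antibody detection. HMT at 20 nM; substrate b-H3K9 500 nM; cofactor SAM 20 uM; 2 h RT reaction; compounds tested as titrations in qHTS with 15 min preincubation.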
# % is scaled to controls: 0 for no effect and ±100 for the full control effect; potency is read from the fitted curve at half-maximal effect; tags tell the direction and shape of the fitted curve.
# UniProt Q96KQ7, sequence (Q96KQ7 whole entry, looked up): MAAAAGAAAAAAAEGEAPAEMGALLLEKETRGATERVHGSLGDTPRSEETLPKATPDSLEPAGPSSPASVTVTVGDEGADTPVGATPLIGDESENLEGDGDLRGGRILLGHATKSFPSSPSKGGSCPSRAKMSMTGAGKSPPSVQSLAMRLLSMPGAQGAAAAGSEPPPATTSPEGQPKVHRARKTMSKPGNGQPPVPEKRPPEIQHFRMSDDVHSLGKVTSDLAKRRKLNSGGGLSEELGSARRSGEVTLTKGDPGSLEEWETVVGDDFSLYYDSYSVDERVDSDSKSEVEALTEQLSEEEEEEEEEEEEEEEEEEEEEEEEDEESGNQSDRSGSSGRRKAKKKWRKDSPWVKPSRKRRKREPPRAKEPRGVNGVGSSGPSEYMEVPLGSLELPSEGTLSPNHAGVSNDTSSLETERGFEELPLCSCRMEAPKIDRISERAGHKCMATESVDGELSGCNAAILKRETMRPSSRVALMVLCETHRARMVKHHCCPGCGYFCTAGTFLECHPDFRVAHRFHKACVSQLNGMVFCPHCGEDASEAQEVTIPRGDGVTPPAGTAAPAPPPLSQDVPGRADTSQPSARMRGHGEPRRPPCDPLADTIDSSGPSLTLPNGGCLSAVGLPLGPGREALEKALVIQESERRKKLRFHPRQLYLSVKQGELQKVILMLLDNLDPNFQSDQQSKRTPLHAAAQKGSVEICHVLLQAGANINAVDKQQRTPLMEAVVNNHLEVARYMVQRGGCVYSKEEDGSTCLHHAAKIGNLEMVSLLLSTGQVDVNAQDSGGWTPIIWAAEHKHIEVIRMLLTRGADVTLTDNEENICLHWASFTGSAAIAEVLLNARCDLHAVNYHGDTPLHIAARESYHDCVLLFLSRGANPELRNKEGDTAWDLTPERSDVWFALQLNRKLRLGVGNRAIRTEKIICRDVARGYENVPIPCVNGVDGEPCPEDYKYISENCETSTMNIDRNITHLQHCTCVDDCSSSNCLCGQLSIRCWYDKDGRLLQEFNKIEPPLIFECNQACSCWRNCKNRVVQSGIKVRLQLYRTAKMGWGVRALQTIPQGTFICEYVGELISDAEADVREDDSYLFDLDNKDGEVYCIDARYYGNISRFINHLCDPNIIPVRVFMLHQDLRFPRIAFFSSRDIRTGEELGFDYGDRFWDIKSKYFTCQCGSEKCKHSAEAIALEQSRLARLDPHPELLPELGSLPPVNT
Structure (SMILES),"activity, negative = inhibition",Potency
Brc1ccc(-n2nc(-c3ccccc3)c3cnc4cc5c(cc4c32)OCO5)cc1,inactive: 5.71%,
CCc1c(C)nc2cc(-c3ccc(OC)c(OC)c3)nn2c1NCC1CC1,,active: 56.2 µM
COCCNC(=O)CS(=O)Cc1nc(-c2ccccc2C)oc1C (stereo unspecified),,"inconclusive: 89.1 µM [inhibitor, single point]"
O=C(NCCc1cn2ccsc2n1)C1CCCCC1,inactive: -31.8% [at 102 µM],
O=C(O)CNC1=NCCCCC1,inactive: 8.94% [at 102 µM],
Cc1cccc(NC2SC(=O)N(c3ccccc3)C2=O)c1 (stereo unspecified),inactive: -21.8% [at 12.7 µM],
CC(=O)NCC(=O)N(Cc1ccco1)C1(C(=O)NC2CCCCC2)CCCCC1,,"inconclusive: 2.82 µM [inhibitor, partial curve, poor fit]"
COc1cc(CNC2CCCCCC2)cc(OC)c1OC,,active: 17.8 µM
COC(=O)c1nc(-c2ccc(C)cc2)oc1N(C)C,inactive: -6.49%,
CN(Cc1nccn1C)C(=O)CC1C(=O)NCCN1Cc1ccc(F)cc1Cl (stereo unspecified),,active: 39.8 µM
CCc1ccc(OCC2c3cc(OC)c(OC)cc3CCN2C(=O)COc2ccccc2)cc1 (stereo unspecified),inactive: -37.8%,
Cc1cc(=O)[nH]c(=S)[nH]1,,"inconclusive: 25.1 µM [inhibitor, single point]"
CC(=O)c1cccc(NC(=S)NC(=O)c2cccc(C)c2)c1,,active: 25.1 µM
COC(=O)c1[nH]c2ccccc2c1NC(=O)CN1CCN(C(=O)c2ccco2)CC1,,"inconclusive: 89.1 µM [inhibitor, partial curve, poor fit]"
O=C(O)C1=C[C@H](c2ccccc2)C[C@H](OCc2ccc(CO)cc2)O1,inconclusive: -93.3% [inhibitor],
COc1ccc(NS(=O)(=O)c2ccc3oc(SC)nc3c2)cc1,,active: 39.8 µM
Cc1nnc(-c2cnn(-c3ccccc3)c2N)n1Cc1ccccc1,inactive: -2.19% [at 12.7 µM],
COc1ccc(NC(=O)CSc2nc(NS(=O)(=O)c3ccccc3)cc(=O)[nH]2)cc1,inconclusive: -74% [inhibitor],
CCn1c(=O)cc(OCC(=O)Nc2cc(Cl)c(OC)cc2OC)c2ccccc21,inactive: -14.6%,
O=C(NCc1cccs1)C(Cc1ccccc1)n1cccc1 (stereo unspecified),,active: 44.7 µM
CSc1nc2c(c(=O)n1Cc1ccccc1)SC(C)C2 (stereo unspecified),,"inconclusive: 31.6 µM [inhibitor, partial curve, poor fit]"
Cc1nn2c(=O)cc(COC(=O)c3c(F)cccc3Cl)nc2s1,,"inconclusive: 10 µM [inhibitor, partial curve]"
CCOc1ccc(NC2CCCCC2NS(=O)(=O)c2ccccc2)cc1 (stereo unspecified),,"inconclusive: 31.6 µM [inhibitor, full curve, poor fit]"
Cc1ccc(N(Cc2cc(=O)[nH]c3ccccc23)C(=O)c2ccco2)cc1,,"inconclusive: 0.1 µM [inhibitor, full curve, poor fit]"

Structure (SMILES),"activity, negative = inhibition",Potency
CCN1C(=O)S/C(=C/c2ccc(Oc3ccc([N+](=O)[O-])cn3)c(OC)c2)C1=O,,"inconclusive: 44.7 µM [inhibitor, partial curve, poor fit]"
Cc1ccccc1N=C/C=C1/C=C(c2ccccc2)OC(C)(C)O1,,active: 22.4 µM
COc1ccc(N2CC(=O)N(c3ccc(OC)c(OC)c3)CC2=O)cc1OC,,"inconclusive: 89.1 µM [inhibitor, single point]"
O=C(CCCCCCCC(=O)c1ccccc1)c1ccccc1,inactive: 472%,
CCc1ccccc1N(C)C(=O)c1cc2c(=O)oc3ccccc3c2s1,inactive: -0.701%,
CC(=O)c1cccc(NC(=O)c2noc3c2CCCC3)c1,inactive: 5.4%,
C/C(=C/c1oc2ccc(O)cc2c1[N+](=O)[O-])N(C)C,,active: 79.4 µM
COc1ccc(OC)c(NC(=O)c2cnn(-c3ccc(C)cc3)c2C2CCNCC2)c1,,"inconclusive: 14.1 µM [inhibitor, partial curve, poor fit]"
Cc1cccc(N(CC(=O)NC2CCCCC2)C(=O)Cn2nnc(-c3ccc(C)o3)n2)c1,,active: 44.7 µM
CCCn1c(SCC(=O)N2N=C3/C(=C/c4ccc(OC)cc4)CCCC3C2c2ccc(OC)cc2)n[nH]c1=O (stereo unspecified),,"inconclusive: 2.82 µM [inhibitor, full curve]"
O=C(Nc1ccc2nc3n(c(=O)c2c1)CCCCC3)C(=O)N1CCN(c2ccccc2F)CC1,inactive: -1.79% [at 102 µM],
CC(=O)[C@H]1CC[C@H]2[C@@H]3C=CC4=CC(=O)CC[C@@]4(C)[C@@H]3CC[C@]12C,inactive: -10.2%,
CC(=O)Nc1cccc(NC(=O)CSc2nnc(Cc3cccn3C)n2-c2ccc(F)cc2)c1,,"inconclusive: 44.7 µM [inhibitor, partial curve, poor fit]"
CCc1ccc(N=CC2=C(O)CC(c3ccco3)CC2=O)cc1 (stereo unspecified),,"inconclusive: 89.1 µM [inhibitor, single point]"
Cc1ccc(S(=O)(=O)C(C#N)c2nc3ccccc3nc2N2CCCC2)cc1 (stereo unspecified),,"inconclusive: 1.58 µM [inhibitor, full curve, poor fit]"
Cc1ccc(C)c(CN2C(=O)c3ccccc3S(=O)(=O)c3ccc(C(=O)N4CCCCC4)cc32)c1,inactive: -36.4%,
Nc1ccc2c(c1)C(=O)N(CC1CCCO1)C2=O (stereo unspecified),,"inconclusive: 70.8 µM [inhibitor, partial curve]"
COc1cc(NC(=O)c2cc(S(=O)(=O)N3CCc4ccccc43)cn2C)cc(OC)c1OC,,"inconclusive: 31.6 µM [inhibitor, partial curve, poor fit]"
CCC(=O)NCCc1cc2ccc(C)cc2[nH]c1=O,,"inconclusive: 14.1 µM [inhibitor, partial curve, poor fit]"
Cc1ccc(OCC(=O)Nc2ccc3oc(=O)ccc3c2)cc1,inactive: -2.22% [at 102 µM],
O=C(C1CCC1)N1CCc2cc(S(=O)(=O)NCc3ccc(F)cc3)ccc21,inactive: 9.89%,
N#CC1(c2ccccc2)CCC(=O)N1c1ccccc1 (stereo unspecified),inactive: 4.03% [at 102 µM],
O=C(COc1ccccc1[N+](=O)[O-])N(Cc1ccco1)c1ccccn1,inactive: 0.221%,
CCN(C(=O)COC(=O)c1ccc(OC)c(S(=O)(=O)N2CCCc3ccccc32)c1)C1CCS(=O)(=O)C1 (stereo unspecified),,"inconclusive: 0.562 µM [inhibitor, full curve, poor fit]"

Structure (SMILES),"activity, negative = inhibition",Potency
COc1ccc(/C=C2/C(=O)ON=C2c2ccccc2)cc1OC,inactive: 7.44% [at 0.501 µM],
CCOC(=O)C1=C(CSc2nncn2C)NC(=O)NC1c1cc(OCC)ccc1OCC (stereo unspecified),,"inconclusive: 22.4 µM [inhibitor, partial curve, poor fit]"
Cc1nc(NC(=O)CSc2nnc(N)s2)c(Cl)cc1Cl,,"inconclusive: 79.4 µM [inhibitor, single point]"
Cc1cc2cc(CNC(=O)Nc3ccccc3)ccc2n1C,,active: 31.6 µM
c1ccc(-c2csc3ncnc(N4CCN(Cc5ccc6c(c5)OCO6)CC4)c23)cc1,inactive: 10.8% [at 2.33 µM],
C=CCN=c1scc(-c2ccc3c(c2)NC(=O)CO3)n1/N=C(\C)c1ccccn1,,"inconclusive: 56.2 µM [inhibitor, partial curve, poor fit]"
CCN(CC)CCCN1C(=O)C(O)=C(C(=O)c2ccco2)C1c1cc(OC)ccc1OC (stereo unspecified),,"inconclusive: 100 µM [inhibitor, single point]"
CCC(C)[C@H](NC(=O)NCCC1=CCCCC1)C(=O)OC (stereo partly specified),,"inconclusive: 89.1 µM [inhibitor, partial curve, poor fit]"
Cn1c(=O)c2cc(S(=O)(=O)NC(C(=O)NC3CCCCC3)c3ccccc3)ccc2n(C)c1=O (stereo unspecified),inactive: 18.8% [at 102 µM],
COc1ccc(OC)c(NC(=O)/C=C/c2ccc(C)o2)c1,,"inconclusive: 14.1 µM [inhibitor, partial curve, poor fit]"
O=C1OC(Nc2ccc(Cl)cn2)c2ccccc21 (stereo unspecified),inactive: 5.61%,
CCOc1cccc2c1OC(c1cc(OC)c(OC)c(OC)c1)N1N=C(c3ccc(C)o3)CC21 (stereo unspecified),,active: 12.6 µM
Cc1ccc2nc(C)cc(Nc3ccc([N+](=O)[O-])cc3)c2c1,,"inconclusive: 0.141 µM [inhibitor, full curve, poor fit]"
CC1CSC(N(C(=O)c2ccc(S(C)(=O)=O)cc2)c2ccc(Cl)cc2)=N1 (stereo unspecified),,active: 8.91 µM
O=C(O)Cn1c(=O)c2c3c(sc2n(Cc2ccc(Cl)cc2Cl)c1=O)CCCC3,,"inconclusive: 89.1 µM [inhibitor, single point]"
Cc1cc(N/N=C/c2ccc3c(c2)OCO3)nc2ccccc12,,"inconclusive: 28.2 µM [inhibitor, partial curve, poor fit]"
O=C(c1ccc(Cl)cc1)C1CCCN(Cc2cccn2-c2ccccn2)C1 (stereo unspecified),,"inconclusive: 25.1 µM [inhibitor, partial curve, poor fit]"
COc1cc([N+](=O)[O-])ccc1NC(=O)CN1CCOCC1,,"inconclusive: 89.1 µM [inhibitor, single point]"
CC(C)(C)C1CCC(C(=O)Nc2ccc(N3CCOCC3)cc2N2CCOCC2)CC1 (stereo unspecified),,"inconclusive: 6.31 µM [inhibitor, single point]"
Cc1[nH]c2ccccc2c1C(=O)CSCC(=O)O,,"inconclusive: 39.8 µM [inhibitor, single point]"
COc1ccc(OC)c(-n2c(C)ccc2-c2ccc(S(C)(=O)=O)cc2)c1,,"inconclusive: 28.2 µM [inhibitor, single point]"
NC(=S)C(c1ccccc1)c1ncc(C(F)(F)F)cc1Cl (stereo unspecified),,"inconclusive: 89.1 µM [inhibitor, single point]"
CC(C)c1ccc(Nc2c([N+](=O)[O-])c(=O)n(C)c3ccccc23)cc1,,"inconclusive: 31.6 µM [inhibitor, full curve]"

# From PubChem BioAssay AID504332 (National Center for Advancing Translational Sciences (NCATS), 2011)
